Results from the antibiotic and cytotoxicity screens of Wong et al. (2023).
This is one part of the list.

Key:
HSkMC = human skeletal muscle cells; assay: cytotoxicity call (relative viability < 0.9); settings: 10 µM
S. aureus RN4220 = assay: growth inhibition call (relative growth <= 0.2); settings: 50 µM

SMILES	cytotoxicity call (HSkMC)	growth inhibition call (S. aureus RN4220)
C[C@H](CO)N1C[C@H](C)[C@H](CN(C)Cc2ccc(Oc3ccccc3)cc2)Oc2ccc(NC(=O)Cn3cnnn3)cc2CC1=O	inactive	inactive
Oc1cccc(O)c1	inactive	inactive
C[C@@H]1CN([C@H](C)CO)S(=O)(=O)c2ccc(C#Cc3cccc(F)c3)cc2O[C@H]1CN(C)S(=O)(=O)c1ccccc1F	inactive	inactive
CCOc1ccc(NC(=O)CC(C)O)cc1 (stereo not given)	inactive	inactive
C[C@H](O)[C@H](O)[C@@H](O)[C@@H](O)/C=N/NC(=O)c1cccc(C(=O)NO)c1	inactive	inactive
CC(=O)N1[C@H](CNC(=O)CN2CCOCC2)[C@@H](c2ccccc2)[C@@H]1CO	inactive	inactive
COc1cccc(CN(C)C[C@@H]2OCc3ccccc3-c3c(n(C)c4ccccc34)C(=O)N([C@@H](C)CO)C[C@@H]2C)c1	inactive	inactive
Cc1cc(C(=O)Nc2cccc3c2O[C@H](CN(C)Cc2ccccc2)[C@@H](C)CN([C@@H](C)CO)C3=O)n(C)n1	inactive	inactive
C[C@@H]1CCCCO[C@@H](CN(C)Cc2ccc(Cl)c(Cl)c2)[C@@H](C)CN([C@H](C)CO)C(=O)c2cc(NC(=O)NC3CCCCC3)ccc2O1	inactive	inactive
C[C@@H]1CN([C@@H](C)CO)C(=O)Cc2cc(NS(=O)(=O)c3cccs3)ccc2O[C@H]1CN(C)S(=O)(=O)c1ccc(F)cc1	inactive	inactive
C[C@@H]1CCCCO[C@H](CN(C)C(=O)CCCN(C)C)[C@@H](C)CN([C@@H](C)CO)C(=O)c2cc(N(C)C)ccc2O1	inactive	inactive
Cc1noc(C)c1NC(=O)Nc1ccc2c(c1)C(=O)N([C@H](C)CO)C[C@@H](C)[C@H](CN(C)Cc1ccc(Oc3ccccc3)cc1)O2	inactive	inactive
C[C@@H]1CN([C@H](C)CO)C(=O)c2cc(NS(=O)(=O)c3ccc(F)cc3)ccc2O[C@@H](C)CCCCO[C@H]1CN(C)S(=O)(=O)c1ccc(Cl)cc1	inactive	inactive
CC(C)[C@@H](N)c1nc2ccccc2[nH]1	inactive	inactive
Cc1noc(C)c1S(=O)(=O)N(C)C[C@@H]1Oc2ccc(NS(=O)(=O)c3ccccc3)cc2C(=O)N([C@@H](C)CO)C[C@@H]1C	inactive	inactive
C[C@H](CO)N1C[C@H](C)[C@H](CN(C)S(=O)(=O)c2ccc(C#N)cc2)Oc2ncc(C#Cc3cccc(F)c3)cc2C1=O	inactive	inactive
C[C@@H]1CN([C@H](C)CO)C(=O)c2cc(NC(=O)Cn3cnnn3)ccc2O[C@@H]1CN(C)S(=O)(=O)c1cn(C)cn1	inactive	inactive
C[C@@H]1CN([C@H](C)CO)C(=O)c2cc(NC(=O)NC3CCCCC3)ccc2O[C@@H](C)CCCCO[C@H]1CN(C)Cc1ccccc1	inactive	inactive
C[C@@H]1CN([C@H](C)CO)C(=O)c2cc(NS(=O)(=O)c3ccccc3)ccc2O[C@@H]1CN(C)S(=O)(=O)c1ccc(F)cc1	inactive	inactive
Nn1c(-c2ccncc2)n[nH]c1=S	inactive	inactive
C[C@@H]1CN([C@@H](C)CO)C(=O)Cc2cc(NC(=O)Nc3ccc4c(c3)OCO4)ccc2O[C@@H]1CN(C)Cc1ccc(C(F)(F)F)cc1	inactive	inactive
COc1ccc([C@H]2C/C=C\C[C@H](c3cccc(Cl)c3)NC(=O)[C@@H](c3ccccc3)CC(=O)N2)c(OC)c1	inactive	inactive
O=C(O)CCC(=O)Nc1ccccn1	inactive	inactive
CC(C)N1C[C@H](C)[C@@H](CN(C)Cc2ccc(Oc3ccccc3)cc2)Oc2c(cccc2-c2nnc(-c3ccncc3)o2)C1=O	inactive	inactive
CC(C)NC(=O)N(C)C[C@H]1Oc2cc(C#Cc3cccc(F)c3)ccc2S(=O)(=O)N([C@@H](C)CO)C[C@H]1C	inactive	inactive
CCCCC(=O)C1CCCC=C1C(=O)O (stereo not given)	inactive	inactive
C[C@H]1CN([C@@H](C)CO)C(=O)c2cc(C#CC3(O)CCCC3)cnc2O[C@@H]1CN(C)S(=O)(=O)c1ccccc1	inactive	inactive
Cc1oc(C(C)(C)C)cc1C(=O)Nc1ccc(C(C)C)cc1	inactive	inactive
CC[C@@H](C)C(=O)O[C@H]1[C@@H]2CC3=C4CC(=O)O[C@@H](c5ccoc5)[C@]4(C)CC[C@@H]3[C@@](C)(C2=O)[C@@H](CC(=O)OC)C1(C)C	inactive	inactive
COc1cc(C(=O)NCCCN2CCCN(CCCNC(=O)c3cc(OC)c(OC)c(OC)c3)CC2)cc(OC)c1OC	inactive	inactive
